Assay results: PubChem BioAssay AID504444 (National Center for Advancing Translational Sciences (NCATS), 2011)
Where “and” joins values, the source holds several entries; their conditions need not be identical. Identical values can stand only once. About 7,500 (2.1%) of roughly 360,000 compounds were called active. Not shown: some 20% with an inconclusive outcome. Calls follow the shape of the dose curve; as a rule, active = well fitted inhibition curve with a large enough effect; inconclusive = small, poorly fitted or top-dose-only effect, or effect the other way; inactive = flat fitted curve, though single readings scatter. The entries are a selection whose mix differs from that of the whole data set. A structure can be active in one record and inactive in another.

Assay: Nrf2 qHTS screen for inhibitors; also: nearly all actives have a fitted effect of over 60% in size
Details: A549 ARE-Fluc reporter, luciferase luminescence, 18-24 h; series mostly up to 46 µM; activity change, negative = inhibition: at the top concentration
Procedure, shortened: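 Nrf2 function is reported as luminescence of an ARE-controlled luciferase in A549 cells. Compounds were tested at several concentrations, and a CellTiter-Fluor read on the same wells flagged cytotoxicity.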
% is scaled to controls: 0 for no effect and ±100 for the full control effect; potency is read from the fitted curve at half-maximal effect.

Row | SMILES | activity change, negative = inhibition | Potency
1 | O=C(CSc1ncc(-c2ccccc2)[nH]1)Nc1ccccc1 | inactive: 18.8% | –
2 | COCCCn1c(=O)c2sccc2n2c(CCCC(=O)NCc3cccc(OC)c3)nnc12 | inactive: -1.75% | –
3 | C[C@H]1CCC[C@@]2(O[C@H](CCO)C[C@@H](O)[C@@H]2O)O1 | inactive: -4.94% | –
4 | Nc1nc(NCc2ccccc2)c2[nH]cnc2n1 | inactive: -14.4% | –
5 | CN(CCOc1ccc(CC2SC(=O)NC2=O)cc1)c1ccccn1 (stereo not given) | inactive: -28.5% | –
6 | CCCn1c2ccccc2c2cnn(CC(=O)NCCCN3CCCCC3CC)c(=O)c21 (stereo not given) | inactive: 22.3% | –
7 | COc1ccccc1C(=O)NCC(=O)N=Nc1c(O)n(C(C)C)c2ccccc12 | – | active: 23.1 µM
8 | CCOC(=O)c1c(C)[nH]c(C(=O)OCC(O)=C(C#N)c2nc3ccccc3[nH]2)c1C | inactive: -12.3% | –
9 | CN(Cc1ccc(Cl)cc1)C(=O)c1ccc(S(=O)(=O)NCc2ccco2)cc1 | – | active: 9.2 µM
10 | CC[C@@H]1CCCCc2ccccc2[C@H](C(=O)C[C@@H](O)CC(C)=O)OC1=O | inactive: -29.2% | –
11 | COc1ccc(NC(=O)c2c(NC(=O)c3ccncc3)sc3c2CCC(C(C)(C)C)C3)cc1 (stereo not given) | – | active: 18.4 µM
12 | O=C(CN1C(=O)c2cccnc2Oc2ccc(Cl)cc21)NCCc1ccccc1 | inactive: -9.44% | –
13 | O=C(Cc1ccc(-n2c(=O)[nH]c3ccsc3c2=O)cc1)N1CCN(c2ccc(Cl)cc2)CC1 | – | active: 23.1 µM
14 | COC(C[C@@H]1O[C@H]1[C@@H](O)[C@@H](C)OCc1ccccc1)OC | inactive: 6.16% | –
15 | COc1ccc(Nc2ncc(C(=O)N3CCN(c4ccccc4OC)CC3)c3ccccc23)cc1 | inactive: -8.77% [at 9.27 µM] | –
16 | O=C(Nc1nnc(S(=O)(=O)N2CCCCCC2)s1)c1ccccc1 | inactive: -10.7% | –
17 | O=C(CCl)Nc1cc(SCC(O)CO)cc([N+](=O)[O-])c1 (stereo not given) | – | active: 4.61 µM
18 | O=C1NC[C@H](Cc2ccc(O)cc2)N(CCc2cccc3ccccc23)C1=O | inactive: 13.4% | –
19 | O=C1NC(=S)S/C1=C\c1ccc(SCc2ccccc2)o1 | – | active: 20.6 µM
20 | CC(C)OCCCN(C)C1CCN(S(=O)(=O)c2csc(C(N)=O)c2)CC1 | inactive: 4.78% | –
21 | Cc1ccccc1OCc1n(CC(=O)OC2CC(C)CCC2C(C)C)c2ccccc2[n+]1C (stereo not given) | – | inactive and active: 18.4 µM
22 | O=C(C1=C[C@H](c2coc3ccccc3c2=O)C[C@H](OCCCCO)O1)N1CCN(Cc2ccc3c(c2)OCO3)CC1 | inactive: -22.8% | –
23 | COc1ccccc1NC(=O)Cn1cnc2c(nc3n2CCCCC3)c1=O | inactive: 0.511% | –

Row | SMILES | activity change, negative = inhibition | Potency
24 | CCCC1OC2CC3C4CCC5=CC(=O)C=CC5(C)C4C(O)CC3(C)C2(C(=O)O)O1 (stereo not given) | – | active: 0.461 µM
25 | N=C1C=CC(=C(c2ccc(N)cc2)c2ccc(N)cc2)C=C1 | – | active: 7.31 µM
26 | CCN(CC)C(=O)c1nn(-c2ccccc2)c2c1C1CCC2(C)C1(C)C (stereo not given) | – | active: 16.4 µM
27 | COc1ccc(-c2ccc(C(C)=O)cc2)cc1C1C2C=CCC(C)C2C(=O)N1Cc1ccccc1 (stereo not given) | inactive: 14.7% | –
28 | C[C@H]1CC[C@]2(O[C@@H](CCO)C[C@H](O)[C@H]2O)O1 | inactive: -0.254% | –
29 | Cc1ccc(CN2CCC(CNC(=O)Nc3ccccc3F)CC2)cc1 | inactive: 13.8% | –
30 | O=C(COCc1ccccc1)N[C@@H]1c2ccccc2CC[C@H]1OCc1ccccc1 | inactive: 9.83% | –
31 | Cc1cc(C)cc(NS(=O)(=O)c2cc3[nH]c(=O)c(=O)[nH]c3cc2C)c1 | inactive: 8.24% | –
32 | COc1cc2c(C(=O)N3CCN(c4cccc(Cl)c4)CC3)cn(C)c(=O)c2cc1OC | inactive: -8.65% | –
33 | COc1ccc(NS(=O)(=O)c2ccc(NC(=O)c3ccc(Br)cc3)cc2)nn1 | – | active: 20.6 µM
34 | CCN(c1ccc(OC)cc1)S(=O)(=O)c1nnc(NC(=O)COc2ccc(F)cc2)s1 | inactive: -28.4% | –
35 | CC1C(=O)Nc2ccc(S(=O)(=O)Nc3ccccc3Br)cc2NC1=O (stereo not given) | inactive: -3.51% | –
36 | CCN1CCN(C(=O)c2ccc3c(c2)N(Cc2ccccc2)C(=O)c2ccccc2S3=O)CC1 (stereo not given) | inactive: -3.38% | –
37 | O=C(O)c1cc(O)c2c(c1)[C@@H]([C@H]1c3cc(C(=O)O)cc(O)c3C(=O)c3c(O[C@@H]4O[C@H](CO)[C@@H](O)[C@H](O)[C@H]4O)cccc31)c1cccc(O[C@@H]3O[C@H](CO)[C@@H](O)[C@H](O)[C@H]3O)c1C2=O | inactive: 5.59% | –
38 | Cc1ccc2c(c1)S/C(=C/c1ccc[n+](CCO)c1)N2C | – | active: 1.16 µM
39 | Cc1cccc(NS(=O)(=O)c2ccc(-n3cccn3)cc2)c1C | inactive: -24.8% | –
40 | COC(C[C@H]1O[C@@H]1[C@H](O)[C@H](C)OCc1ccccc1)OC | inactive: 3.7% | –
41 | O=C(Cn1cnc2ccccc21)Nc1ccc2c(c1)OCCCO2 | – | active: 13 µM
42 | O=C(CCn1c(=O)c2cccn2c2ccc(F)cc21)NCCc1ccccc1 | inactive: 20.6% | –
43 | O=C(CCn1ccc2cc(S(=O)(=O)N3CCCC3)ccc21)NCc1cccc(F)c1 | inactive: -6.94% | –
44 | COC(=O)c1cc(S(=O)(=O)NCC2CCN(Cc3cccc(F)c3)CC2)c[nH]1 | inactive: 10.1% | –
45 | Nc1nc(NCc2cccc(Cl)c2)c2[nH]cnc2n1 | inactive: 21.1% | –
46 | O=C(CSc1nnc(Cc2csc(Nc3cccc(Cl)c3)n2)o1)N1CCc2ccccc21 | inactive: -11.3% | –

Row | SMILES | activity change, negative = inhibition | Potency
47 | CC(=O)c1ccc(NC(=O)c2ccc(NC(=O)CCS(=O)(=O)c3cccs3)cc2)cc1 | inactive: 4.1% | –
48 | O=[N+]([O-])c1ccc(Oc2ccc(Oc3ccc(C(F)(F)F)cn3)cc2)nc1 | – | active: 16.4 µM
49 | CN1CCSc2ccc(C(=O)NCc3ccccc3F)cc21 | inactive: 1.87% | –
50 | CCOC(=O)[C@H]1[C@H]2COc3cc(OC)ccc3[C@@H]2N2C(=O)N(c3cccc(F)c3)C(=O)[C@@]12C | inactive: -8.59% | –
51 | O=C(Nc1cccc(F)c1)c1cccc2c1C(=O)N(C1CCCCC1)C2 | inactive: 12.1% | –
52 | CCOc1ccc(CCNC(=O)c2cc3ccccn3n2)cc1OCC | – | active: 20.6 µM
53 | Cc1ccc2nc(-c3ccco3)c(Nc3ccccc3)n2c1 | inactive: 8.44% | –
54 | O=C(C1CCC(CNS(=O)(=O)c2cccs2)CC1)N1CCN(c2ccc(Cl)cc2)CC1 (stereo not given) | – | active: 8.2 µM
55 | Cc1ccsc1/C=C1\SC(N2CC(C)OC(C)C2)=NC1=O (stereo not given) | inactive: -19.1% | –
56 | CC1=NN(c2ccccc2)C(=O)/C1=C\C=C1\N(C)c2ccccc2C1(C)C | inactive: -16.7% | –
57 | Cc1ccccc1NC(=O)C1CCN(S(=O)(=O)c2cccc3nonc23)CC1 | inactive: -10.3% | –
58 | CCOC(=O)CCCC(=O)Nc1ncnc2c1C(c1ccccc1)c1c(ccc3ccccc13)O2 (stereo not given) | inactive: 23.1% | –
59 | COc1ccc(C(=O)N2CCN(CCc3ccccn3)CC2)cc1 | inactive: 0.132% | –
60 | COc1ccccc1/C=C/C=N/n1c(C2CCCCC2)n[nH]c1=S | inactive: -7.58% | –
61 | Cn1cc(C(=O)N2CCN(c3ccccc3)CC2)c(=O)c2cc(S(=O)(=O)N3CCCC3)ccc21 | inactive: -0.295% | –
62 | Cc1cccc(Cc2c(C)nc3c(C(=O)N4CCN(Cc5ccc6c(c5)OCO6)CC4)cnn3c2C)c1 | – | active: 18.4 µM
63 | O=C(Nc1nnc(S(=O)(=O)N2CCCCCC2)s1)c1ccc(Br)cc1 | inactive: 0.408% | –
64 | CCC(=O)NC(c1cc(Cl)c2cccnc2c1O)c1cccn1C (stereo not given) | – | active: 25.9 µM
65 | CNC(=O)c1ccsc1NC(=O)c1ccc(S(=O)(=O)N2CCc3ccccc32)cc1 | – | active: 16.4 µM
66 | CC(=O)c1c(C)n(CC(=O)NCc2ccc3c(c2)OCO3)c2ccccc12 | – | active: 5.8 µM
67 | CCC1CN(S(=O)(=O)c2cc(-c3cc(C)no3)ccc2OC)c2cc(C)ccc2O1 (stereo not given) | inactive: 0% | –
68 | CC(=C/c1ccco1)/C=N/N1CCN(c2ccccc2)CC1 | inactive: 5.31% | –
69 | C#Cc1ccc([C@H]2C=C(C(=O)N3CCN(Cc4ccccc4)CC3)O[C@@H](OCC)[C@@H]2CCCO)cc1 | inactive: -14.1% | –

Row | SMILES | activity change, negative = inhibition | Potency
70 | CCOc1ccc(NS(=O)(=O)c2ccc3c(c2)CCN3C(C)=O)cc1 | inactive: -8.31% | –
71 | O=c1cc(-c2ccccc2)nc2cc(-c3ccc(F)cc3)[nH]n12 | inactive: 2.63% | –
72 | Cc1cccc(NC(=O)c2nc[nH]c2C(=O)N[C@@H](C)c2ccccc2)c1 | inactive: -29.5% | –
73 | CCN1C(=O)/C(=C\N(C)C)c2ccccc21 | inactive: 7.13% | –
74 | C=CC[C@@H](CC(=O)N[C@@H](CO)Cc1ccccc1)C(=O)N[C@@H](COC(=O)[C@@H](CC=C)CC(=O)OC(C)(C)C)Cc1c[nH]c2ccccc12 | inactive: 5.14% | –
75 | O=c1c2ccccc2sn1-c1ccc(S(=O)(=O)N2CCCCC2)cc1 | – | inactive
76 | O=S(=O)(c1ccccc1F)N1CCC(Oc2ccc(-n3cnnn3)cc2)CC1 | inactive: -0.325% | –
77 | O=C(NCc1ccccc1)C1=C[C@H](c2ccc(C(F)(F)F)cc2)C[C@H](OCc2ccc(CO)cc2)O1 | inactive: -1.71% | –
78 | CCOC(=O)/C(C#N)=C/c1c(OCC)n(CC)c2ccccc12 | inactive: -5.61% | –
79 | O=C(C1CCCN(S(=O)(=O)c2cccc3nonc23)C1)N1CCN(c2cccc(Cl)c2)CC1 (stereo not given) | inactive: 2.64% | –
80 | CCc1ccc(NC(=O)C(NS(=O)(=O)c2cccc3nsnc23)c2ccccc2)cc1 (stereo not given) | inactive: -10.1% | –
81 | CCc1nn(CC(=O)NCCCN2CCN(CC)CC2)c(=O)c2cc3occc3n12 | inactive: 1.71% | –
82 | CCc1cccc(NS(=O)(=O)c2ccc(-n3cccn3)cc2)c1 | inactive: -2.46% | –
83 | CCn1cc(C(=O)N2CCN(c3cccc(Cl)c3)CC2)c2cc(OC)c(OC)cc2c1=O | inactive: -11.7% [at 9.27 µM] | –
84 | C=CCC[C@H](Cc1ccc(F)cc1)C(=O)OC[C@H](C)NC(=O)[C@@H](CC=C)CC(=O)N[C@H](CO)Cc1ccccc1 | inactive: -27.4% | –
85 | COC(=O)c1cc(S(=O)(=O)NCC2CCN(Cc3ccc(C)cc3)CC2)cn1C | inactive: -4.11% | –
86 | COC(=O)c1ccccc1NC(=O)CCCN1C(=O)C(c2ccccc2)Oc2cccnc21 (stereo not given) | inactive: -15.4% | –
87 | C[C@H](NC(=O)[C@@H]1Cc2ccccc2CN1C(=O)OC(C)(C)C)C(=O)NC1CCCC1 | inactive: -6.96% | –
88 | Cc1ccccc1OCC(=O)Nc1nnc(S(=O)(=O)N2CCCC2)s1 | inactive: -2.06% | –
89 | C[C@H]1CC[C@@]2(O[C@H](CCO)C[C@H](O)[C@H]2O)O1 | inactive: 7.61% | –
90 | COC(=O)[C@@]12CCCCN1[C@H](c1ccc(-c3ccc(OC)cc3)cc1)[C@H]1C(=O)N(C)C(=O)[C@H]12 | inactive: -11% | –
